T1: VEGF-A 109 (minimal VEGF-A fragment with 109 residues) (radiolabelled (printed as tritiated; ligand solution may be supernatant of metabolically labeled 293T cells))
T1 chain: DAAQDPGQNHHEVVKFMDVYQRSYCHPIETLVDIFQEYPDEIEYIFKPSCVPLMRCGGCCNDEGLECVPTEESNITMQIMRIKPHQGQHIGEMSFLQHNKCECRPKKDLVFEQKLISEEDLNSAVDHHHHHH

T2: VEGF-C 109 (minimal VEGF-C fragment with 109 residues) (radiolabelled (printed as tritiated; ligand solution may be supernatant of metabolically labeled 293T cells))
T2 chain: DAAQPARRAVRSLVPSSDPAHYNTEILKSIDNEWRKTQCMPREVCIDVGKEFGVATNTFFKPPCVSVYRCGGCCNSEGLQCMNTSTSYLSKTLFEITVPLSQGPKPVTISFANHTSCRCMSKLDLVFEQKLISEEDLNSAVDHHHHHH


What was measured:
[1] = molecular target: T1, VEGF-A 109 (minimal VEGF-A fragment …); experiment: precipitation of radiolabelled VEGF-A 109 by the Fc fusion with protein A sepharose, SDS-PAGE autoradiography
Procedure: (§1) Either Tritiated VEGF-A 109 or VEGF-C 109 was used in a given binding experiment. Ligand in solution was precipitated by mixing 175 μl of ligand solution with 100 μl binding mix at 4° C. overnight, with agitation. The ligand solution may be the supernatant of metabolically labeled 293T cells. The binding mixes used for the receptor binding analysis were as follows: for VEGFR-1 binding assays, the binding mix was phosphate buffered saline (PBS) containing 1.5% BSA, 0.06% Tween 20, 3 μg/ml heparin and 400 ng/ml VEGFR-1-Fc fusion protein (100 μl of this binding mix was added to 200 μl of ligand solution). For VEGFR-2 binding assays, the binding mix was 82% conditioned cell supernatant from 293T cells transiently expressing VEGFR-2-Fc fusion protein in mixture with 18% of a PBS solution that contained 5% BSA, 0.2% Tween 20, and 10 μg/ml heparin (250 μl of binding mix was added to 200 μl of ligand solution). For VEGFR-3 binding assays, the binding mix was 82% conditioned cell supernatant from 293T cells transiently expressing VEGFR-3-Fc fusion protein, 18% of PBS containing 5% BSA, 0.2% Tween 20, and 10 μg/ml heparin (250 μl of binding mix was added to 200 μl of ligand solution). To collect precipitated ligand, 50 μl of a 30% protein A sepharose (PAS, Pharmacia) slurry in PBS was added and incubated under agitation for at least 1.5 hr at 4° C. Standard buffer was added to each immunoprecipitation sample and boiled for 5 minutes at 95° C. during which the immunopreciptated proteins become dissociated from the protein A sepharose. After centrifugation, 10 μl of each sample was analyzed on 15% SDS-PAGE under reducing conditions. The gels were dried and exposed for either 12 hours on phosphorimager plates or 4 weeks on X-ray film.

[2] = molecular target: T2, VEGF-C 109 (minimal VEGF-C fragment …); experiment: precipitation of radiolabelled VEGF-C 109 by the Fc fusion with protein A sepharose, SDS-PAGE autoradiography
Procedure: as §1

binding result [1] | binding result [2] | Binder
no binding | no binding | R-2 D with CD33 Signal Peptide (VEGFR-2 fragment / human IgG Fc fusion) (Fc fusion, CD33 signal peptide in the expression construct; not shown: human IgG Fc fragment fused to the C-terminus) MDKLASGTLEDGRGSLPSVSLDLPRLSIQKDILTIKANTTLQITCRGQRDLDWLWPNNQSGSEQRVEVTECSDGLFCKTLTIPKVIGNDTGAYKCFYRETDLASVIYVYVQDYRSPFIASVSDQHGVVYITENKNKTVVIPCLGSISNLNVSLCARYPEKRFVPDGNRISWDSKKGFTIPSYMISYAGMVFCEAKINDESYQSIMYIVVVVGYRIYDVVLSPSHDPIEGRGGGGGD[gap - human IgG1 Fc with changes]
no binding | no binding | R-2 E with CD33 Signal Peptide (VEGFR-2 fragment / human IgG Fc fusion) (Fc fusion, CD33 signal peptide in the expression construct; not shown: human IgG Fc fragment fused to the C-terminus) MDKLASGTLEDGRGSLPSVSLDLPRLSIQKDILTIKANTTLQITCRGQRDLDWLWPNNQSGSEQRVEVTECSDGLFCKTLTIPKVIGNDTGAYKCFYRETDLASVIYVYVQDYRSPFIASVSDQHGVVYITENKNKTVVIPCLGSISNLNVSLCARYPEKRFVPDGNRISWDSKKGFTIPSYMISYAGMVFCEAKINDESYQSIMYIVVVVGYRIYDVVLSPSHGIELSVGEKDPIEGRGGGGGD[gap - human IgG1 Fc with changes]
no binding | no binding | R-2 C with CD33 Signal Peptide (VEGFR-2 fragment / human IgG Fc fusion) (Fc fusion, CD33 signal peptide in the expression construct; not shown: human IgG Fc fragment fused to the C-terminus) MDKLASGTLEDGRGSLPSVSLDLPRLSIQKDILTIKANTTLQITCRGQRDLDWLWPNNQSGSEQRVEVTECSDGLFCKTLTIPKVIGNDTGAYKCFYRETDLASVIYVYVQDYRSPFIASVSDQHGVVYITENKNKTVVIPCLGSISNLNVSLCARYPEKRFVPDGNRISWDSKKGFTIPSYMISYAGMVFCEAKINDESYQSIMYIVVVVGYRIYDVDPIEGRGGGGGD[gap - human IgG1 Fc with changes]

— US20090155268A1 (VEGENICS, published 2009)
